# Laboratory results from PubChem BioAssay (NCI).
# Values joined by “and” are separate entries in the source; they are usually repeats but may differ in a detail not shown here. Equal values may be shown once.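 All cell lines were grown in 96-well plates and treated with compound for 48 hours. GI50: concentration for 50% inhibition of growth. TGI denotes the concentration required for complete inhibition of growth.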 Square brackets hold non-standard residues; d marks the D form. Peptide text beside a SMILES is read from it. * marks the point of attachment. Cbz = O=C(OCc1ccccc1)*; Aib = CC(C)(N)C(=O)O; OBn = c1ccc(CO*)cc1
# Tested on: NCI-H322M lung
# Assay: inhibition of tumour cell growth, NCI panel, 48 h
SMILES,TGI,GI50
Cc1ccsc1/C=N/Nc1cnccn1,> 100 µM,
COc1cc2c(cc1OCCCCCN1CCN(c3ncnc4ccccc34)CC1)N=CC1CCCN1C2=O (stereo not drawn),4.72 µM,0.117 µM
CCOc1c(OC)cc(-c2nc3n(n2)C(=O)C(CC)S3)cc1OC (stereo not drawn),> 10 µM,
COc1cc(OC)c(OC)cc1/C=N/NC(=O)N/N=C/c1cc(OC)c(OC)cc1OC,> 100 µM,
O=c1c2c(no[n+]2[O-])c2ccccc2n1-c1ccccc1,31.8 µM,
CC1=C(C(=O)Nc2ccccc2)C(c2ccc(Cl)c(Cl)c2)C(C(=O)Nc2ccccc2)=C(C)N1,39.2 µM,
CC1=C(C#N)c2nc3ccccc3n2C(=O)C1(C)CCO (stereo not drawn),> 100 µM,
COC(=O)c1ccccc1CC1Cc2cccc(C)c2C1=O (stereo not drawn),> 100 µM,
CCCCCCCCSC1=C(Cl)C(=O)C(OC)=C(OC)C1=O,45.8 µM,
C/C1=C\[C@H](C)C[C@H](C)OC(=O)[C@H](C)NC(=O)[C@@H](Cc2ccc(O)c(Br)c2)N(C)C(=O)[C@H](C)NC(=O)[C@@H](C)C1,> 22.9 µM,
Cc1cccc(NC2=C(Cl)C(=O)c3nc(C)ccc3C2=O)c1,7.37 µM,2.32 µM
[N-]=[N+]=NC1(c2ccccc2)C(=O)c2cccc3c2N(CCC3)C1=O (stereo not drawn),> 100 µM,
COC(=N)c1csc(C2OC(CO)C(O)C2O)n1 (stereo not drawn),> 100 µM,
CC1(C)C=CC(=O)C(O)C(C)(C)C1=O (stereo not drawn),> 100 µM,
COc1cc(C[P+](c2ccccc2)(c2ccccc2)c2ccccc2)cc(OC)c1OC,> 100 µM,
Cc1cc2c(cc1C)[n+](=O)cc(C(=O)C/C(=N/NC(=S)NN)C(=O)Nc1cccc(C(F)(F)F)c1)n2[O-],> 100 µM,
C=C(CN(C)Cc1ccccc1)c1ccc(NC(=O)c2ccc(C(=C)CN(C)Cc3ccccc3)cc2)cc1,> 100 µM,> 100 µM
CCCCCCCCc1cc2c(O)c(c1)Cc1cc(CCCCCCCC)cc(c1O)Cc1cc(CCCCCCCC)cc(c1O)Cc1cc(CCCCCCCC)cc(c1O)Cc1cc(CCCCCCCC)cc(c1O)Cc1cc(CCCCCCCC)cc(c1O)C2,> 100 µM,
C=C(C)[C@H]1C2=CC(C(=O)OC)=C(C[C@H](C(=C)C)[C@@H](O)[C@@H](O)C3=C[C@H]1OC3=O)O2,> 100 µM,
Cc1nc2c(Br)cc(Br)cc2c(=O)n1-c1nnc(-c2cccc(Cl)c2Cl)c(N)n1,41.7 µM,14.7 µM
COc1ccc(-c2nc3ccccc3c(=S)n2OC(C)=O)cc1,> 25 µM,
CCOc1ccc(OCC(=O)O)c2c1CCCC2=O,> 100 µM,
COc1cc2c(cc1OCCCN1C(=O)c3cccc4cccc(c34)C1=O)N=C[C@@H]1CCCN1C2=O,> 100 µM,
CO[C@@H]1CC[C@]2(C)OC[C@H](C)[C@@H]3C[C@@H](C)[C@@H](OC(C)=O)[C@@H]4[C@H]3[C@@H]2O[C@H]4C[C@@]1(C)O,> 100 µM,> 100 µM

SMILES,TGI,GI50
O=C(O)c1ccc(CNCc2ccccc2)cc1,> 100 µM,
COc1c2occc2c(N)c2ccc(=O)oc12,> 100 µM,
Nc1nc(Cl)nc2c1ncn2C1CC(O)C(CO)O1 (stereo not drawn),> 100 µM,
O=C(CCSC1=NCCCN1)c1ccc(F)cc1,34.6 µM,
Cc1cc(N(C)C)c2ccccc2[n+]1CCCCCCCCCC[n+]1c(C)cc(N(C)C)c2ccccc21,15.6 µM,
NCCCn1c2c(c3ccc([N+](=O)[O-])cc3c1=O)C(=O)c1cc(I)ccc1-2,2.29 µM,0.709 µM
Cn1ncc2c(NCc3ccccc3)ncnc21,> 100 µM,
O=C(CC(=O)Nc1ccccc1)NNC(Sc1ccccc1)c1cc(N=Nc2ccc(Br)cc2)ccc1O (stereo not drawn),> 10 µM,
CCCCNCCCNCCCNC(=O)c1csc(-c2csc(CCNC(=O)C(NC(=O)C(C)C(O)C(C)NC(=O)C(NC(=O)c3nc(C(CC(N)=O)NCC(N)C(N)=O)nc(N)c3C)C(OC3OC(CO)C(O)C(O)C3OC3OC(CO)C(O)C(OC(N)=O)C3O)c3cnc[nH]3)C(C)O)n2)n1 (stereo not drawn),> 100 µM,22.6 µM
COC1OC2COC(c3ccccc3)OC2C(O)C1OC(=S)c1ccccc1 (stereo not drawn),> 100 µM,
Cc1nc2c(N)ncnc2o1,> 100 µM,
Nc1c(S(=O)(=O)c2ccc(Cl)cc2)c2nc3ccccc3nc2n2ccnc12,> 100 µM,
Nc1c(C(=O)Nc2ccccn2)sc2nc3c(cc12)C(=O)CCC3,> 100 µM,9.18 µM
COc1ccc(/C=N/NC(=O)c2ccc(O)c(CN(C)C)c2)cc1,> 100 µM,
NC(=O)c1cc(I)ccc1NC(=O)/C=C/c1ccccc1,> 100 µM,0.952 µM
O=C(c1ccc([N+](=O)[O-])cc1[N+](=O)[O-])N(/N=C/C=C/c1ccccc1)c1nnc(-c2ccccc2)c(-c2ccccc2)n1,> 100 µM,
COc1ccc(CNc2c3ccccc3nc3ccccc23)cc1F,12 µM,3.22 µM
O=c1[nH]c(=O)n(C2CC(O)C(CO)O2)cc1OS(=O)(=O)C(F)(F)F (stereo not drawn),> 100 µM,
CN(C)CCNC(=O)Cc1ccccc1Nc1c(Cl)cccc1Cl,27.1 µM,
COc1ccc2c(=O)oc3c(OC)cc(CCN(C)C)c4c(=O)oc1c2c34,30.8 µM and 17.2 µM,
O=C(O)C(O)C(O)C(O)C(O)CO (stereo not drawn),> 100 µM,
CC[C@]1(O)C[C@H]2CN(CCc3c([nH]c4ccccc34)C(C(=O)OC)(c3cc4c(cc3OC)N(C)[C@H]3[C@@](O)(C(=O)OC)[C@H](OC(C)=O)[C@]5(CC)[C@@H]6C[C@@H]6CN6CC[C@]43[C@@H]65)C2)C1 (stereo partly drawn),8.32 µM,0.00509 µM
CCn1cc(-c2ccnc3[nH]c(-c4cccc(CN(C)C)c4)cc23)c(-c2ccc(NC(=O)N(C)C)cc2)n1,23.4 µM and > 10 µM,8.19 µM and 4.37 µM
CCOC(=O)C(Br)=C1OC(=O)c2ccccc2-c2ccccc21 (mixture of isomers),50.3 µM,

SMILES,TGI,GI50
CC(=O)N/C(=C\c1ccccc1/C=C(\NC(C)=O)c1nc2cc(C)c(C)cc2[nH]1)c1nc2cc(C)c(C)cc2[nH]1,> 100 µM,
COC(=O)c1c(C)cc(OC)c(C/C=C(\C)CCCc2coc(C=C(C)C)c2)c1OC,> 100 µM,
Nc1ncc2c(n1)-c1ccccc1OC2N1CCCC1 (stereo not drawn),> 100 µM,
NC(N)=Nc1nc2ccccc2o1,> 100 µM,> 100 µM
CN(C)CCN1CCC(Cc2ccccc2)CC1,> 80 µM,> 80 µM
O[C@H]1[C@H](O)[C@@H](O)CN2CC[C@H](O)[C@H]12,> 100 µM,
O=[N+]([O-])c1ccccc1N=Nc1c(O)[nH]c2c(Cl)cc(Cl)cc12,> 100 µM,
CN1Nc2ccccc2CC1=O,> 100 µM,
N#CC(c1ccccc1)N(CCOCCOCCN(C(=O)c1ccccc1)C(C#N)c1ccccc1)C(=O)c1ccccc1 (stereo not drawn),> 100 µM,
NNc1ncnc2nc[nH]c12,> 56.1 µM,2.26 µM
c1ccc(C2=NOC(c3ccccc3)N2C23CC4CC(CC(C4)C2)C3)cc1 (stereo not drawn),> 10 µM,
CC(C(=O)COCc1ccccc1)P1(=O)OC(C)(C)CN1C(C)(C)C (stereo not drawn),> 100 µM,
O=C(Nc1nc(-c2c[nH]c3ccccc23)cs1)c1n[nH]c(=O)c2ccccc12,> 100 µM,> 68.8 µM
COC(=O)c1c2c(c(C)[n+]([O-])c1C)C(=O)C(NCc1ccc(Br)cc1)=CC2=O,6.67 µM,2.01 µM
Cc1cc(C[C@H]2O[C@@H]3OC(C)(C)O[C@@H]3[C@H]3OC(C)(C)O[C@H]32)c2ccccc2n1,> 100 µM,
CC12c3c4ccc(C=O)c3Oc3ccc(C=O)c(c31)Oc1ccc(C=O)c(c12)O4,> 25 µM,
C[C@H](CCOc1cccc(CC(=O)O)c1)N(Cc1cccc(C(F)(F)F)c1Cl)CC(c1ccccc1)c1ccccc1,19.6 µM,6.72 µM
CO/N=C(/C(=O)OC)c1ccccc1COc1ccccc1C(F)(F)F,> 100 µM,
OCCCc1ccc2c(c1)[C@H](CO)[C@@H](c1ccc(O)cc1)O2,> 100 µM,
Cc1ccnc(NC(=S)Nc2ccc([N+](=O)[O-])cc2)c1,> 100 µM,
CC(C)(C)OC(=O)NC(CSSCC(NC(=O)OC(C)(C)C)C(=O)O)C(=O)O (stereo not drawn),> 100 µM,
C=CC12CCN(CC1)C(C(O)c1ccnc3ccc(OC)cc13)C2 (stereo not drawn),> 100 µM,> 100 µM
O=C1c2cccc3cccc(c23)C(=O)N1CCCNCCCCNCCCNCCCN1C(=O)c2cccc3cccc(c23)C1=O,1.56 µM,
O=C(Nc1ncc(Cc2cccc(C(F)(F)F)c2)s1)c1ccc2c(c1)OCCO2,> 100 µM,0.764 µM

SMILES,TGI,GI50
CNc1[nH]c(=S)nc2sc3c(c12)CCCC3,> 75 µM,
C=C(C)[C@@H]1CC[C@]2(CN)CC[C@]3(C)[C@H](CC[C@@H]4[C@@]5(C)CCCNC(C)(C)[C@@H]5CC[C@]43C)[C@@H]12,3.15 µM,1.61 µM
COc1cccc2c1O/C(=C\c1ccc([N+](=O)[O-])s1)C2=O,> 100 µM,> 100 µM
Cc1c2c(c(C)n1-c1ccccc1)C(=O)N(CCN1CCN(c3cccc(C(F)(F)F)c3)CC1)C2=O,> 100 µM,
O=c1[nH]c(O)c(C=Nc2ccc(-c3nc4ccccc4o3)cc2)c(=O)[nH]1,> 100 µM,57.2 µM
CNc1cc2oc(=O)cc(C)c2cc1C,> 100 µM,
CN1CCN(Cc2cc3c(nn2)-c2ccccc2C3=O)CC1,> 100 µM,
Clc1sc(Cl)c2c1[C@@H](Cl)C[C@@H]2Br,> 100 µM,
COc1cc(O)c2c(=O)c(OC)c(-c3ccc(OC)c(O)c3)oc2c1,> 100 µM,
COc1ccc(/C=C\c2cc(OC)c(OC)c(OC)c2)cc1OCC(=O)O,> 100 µM,
CCCC(=O)OC[n+]1ccc2c(C)c3[nH]c4ccccc4c3c(C)c2c1,2.05 µM,
c1ccc2c(c1)CCc1c(-c3ccncc3)n[nH]c1-2,> 100 µM,
CCC(C)(C)n1c(C)nc2c1C(=O)c1ccccc1C2=O,> 100 µM,
C=C(CN(C)C)C(=O)c1ccc(C(=O)C(=C)CN(C)C)cc1,> 100 µM,
CN1CC[C@]2(c3cccc(O)c3)CC(=O)/C(=C/c3ccccc3)[C@@H]1C2,22.3 µM,
CC(C)N1CCN(c2ccc(OCC3COC(Cn4cncn4)(c4ccc(Cl)cc4Cl)O3)cc2)CC1 (stereo not drawn),28 µM,
Cc1cc(C)nc(NC(=S)Nc2ccc([N+](=O)[O-])cc2)c1,> 100 µM,
CC(NC(=O)C(C)(C)NC(=O)C(CC(=O)OCc1ccccc1)NC(=O)OCc1ccccc1)C(N)=O (stereo not drawn) (Cbz-Asp(OBn)-[Aib]-Ala-NH2; configuration not given here),> 100 µM,
CCc1c(O)c(O)c(C(C)=O)c2c(O)c(-c3c(C)cc4c(CC)c(O)c(O)c(C(C)=O)c4c3O)c(C)cc12,19.2 µM,
CCOC(=O)CC/C(=N/Nc1ccc(Cl)cc1[N+](=O)[O-])C(=O)OCC,> 100 µM,
CNc1nncc2[nH]cnc12,> 100 µM,
C[C@@H]1CC[C@H]2[C@H]1[C@H]1[C@@H](CC[C@]2(C)N=C=S)C1(C)C,> 100 µM,
CSC[C@H](NC(=O)COc1cccc2cnccc12)C(=O)NC(Cc1ccccc1)C(O)C(=O)N1CSC[C@H]1C(=O)NC(C)(C)C (stereo partly drawn),> 100 µM,
